In PubChem BioAssay AID1476 (National Center for Advancing Translational Sciences (NCATS), 2009):
The whole screen tested about 200,000 compounds, of which about 4,500 (2.2%) were called active. The shares of active, inactive and inconclusive entries below differ from those in the screen. Calls follow the shape of the dose curve; as a rule, active = well fitted inhibition curve with a large enough effect; inconclusive = small, poorly fitted or top-dose-only effect, or effect the other way; inactive = flat fitted curve, though single readings scatter. Where the call is inconclusive, the potency comes from a doubtful curve fit.

target: Cruzipain (Trypanosoma cruzi) (UniProt P25779); assay: qHTS Assay for Promiscuous and Specific Inhibitors of Cruzain (without detergent); conditions: purified cruzain, Z-FR-AMC fluorescence, no detergent; also: nearly all actives have a fitted effect of over 40% in size;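 as to max response, negative = inhibition: plate controls were enzyme without inhibitor for no effect and buffer without enzyme for full effect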
Summary of the method: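 Detergent-free condition (0.00005% Triton X-100) in acetate buffer pH 5.5 with DTT. 1.5 nM enzyme and compound were pre-mixed 15 min, then 2 uM Z-FR-AMC substrate added; reaction progress from fluorescence change between first and third reads (60 s).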
Potency is read from the fitted curve at half-maximal effect; tags tell the direction and shape of the fitted curve.

UniProt P25779, sequence (P25779 whole entry, looked up): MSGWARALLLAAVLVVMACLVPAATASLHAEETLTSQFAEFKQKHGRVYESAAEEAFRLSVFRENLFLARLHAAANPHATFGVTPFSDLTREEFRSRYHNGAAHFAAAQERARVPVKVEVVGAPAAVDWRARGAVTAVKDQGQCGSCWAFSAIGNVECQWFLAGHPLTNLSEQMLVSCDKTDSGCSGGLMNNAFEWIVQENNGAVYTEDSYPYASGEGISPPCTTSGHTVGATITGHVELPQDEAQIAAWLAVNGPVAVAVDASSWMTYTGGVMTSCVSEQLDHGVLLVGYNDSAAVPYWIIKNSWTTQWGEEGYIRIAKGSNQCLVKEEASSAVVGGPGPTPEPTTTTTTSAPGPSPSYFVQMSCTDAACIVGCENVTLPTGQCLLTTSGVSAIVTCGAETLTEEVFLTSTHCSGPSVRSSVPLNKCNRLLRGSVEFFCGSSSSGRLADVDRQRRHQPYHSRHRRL

Compound	Potency	max response, negative = inhibition
COc1cc(OC)c2c(c1)OC(=O)CC2c1ccc2c(c1)OCO2 (centres undefined)	inconclusive: 39.8 µM [inhibitor, single point]	–
Cc1ccc(S(=O)(=O)/C(C#N)=C/c2c(N3CC(C)OC(C)C3)nc3c(C)cccn3c2=O)cc1 (centres undefined)	inconclusive: 39.8 µM [activator, single point]	–
O=C(NCc1cn2ccsc2n1)c1c(F)cccc1Cl	active: 20 µM	–
CCCCNc1nc2c(-c3cccc(C)c3)nnn2c2ccccc12	–	inactive: 17.1%
CC(=O)O[C@]1(C(C)=O)CC[C@H]2[C@@H]3C=C(Cl)C4=CC(=O)[C@@H]5C[C@@H]5[C@]4(C)[C@H]3CC[C@@]21C	inconclusive: 39.8 µM [activator, single point]	–
Cc1ccc(OCc2ccc(C(=O)N3CCOCC3)cc2)cc1C	inconclusive: 25.1 µM [activator, single point]	–
COc1ccc(CN(C)CC(=O)Nc2cc3oc4ccccc4c3cc2OC)c(OC)c1	inconclusive: 39.8 µM [inhibitor, single point]	–
CCN(C(=O)CCS(=O)(=O)c1ccc2c(c1)CCN2C(C)=O)c1cccc(C(F)(F)F)c1	–	inactive: 12.2%
O=C(Nc1ccc(-c2nc3ccccc3o2)c(O)c1)c1cc(Cl)ccc1Cl	–	inactive: 11.6%
O=S(=O)(O)c1cc(O)c2c(N=Cc3ccccc3O)cc(S(=O)(=O)O)cc2c1	–	inactive: -4.91%
CCCCc1ccc(Nc2cc(C)nc(-n3nc(C)cc3C)n2)cc1	inconclusive: 25.1 µM [activator, single point]	–
Cc1ccc(NC(=O)C2CCCN(c3ncnc4onc(C)c34)C2)c(Cl)c1 (centres undefined)	–	inactive: -11.4%
COc1ccc(-c2csc(Nc3cccnc3)n2)cc1	inconclusive: 39.8 µM [inhibitor, single point]	–
Nc1c2c(=O)oc(-c3ccccc3)cc2nn1-c1ccccc1	inconclusive: 31.6 µM [inhibitor, partial curve]	–
CCCCNC(=O)CC1Nc2cc(C)c(C)cc2NC1=O (centres undefined)	–	inactive: -1.81%
CC1(C)OC2CC3C4CC(F)C5=CC(=O)C=CC5(C)C4C(O)CC3(C)[C@]2(C(=O)CO)O1 (some centres undefined)	–	inactive: 3.24%
CN(C)S(=O)(=O)c1ccc(C(=O)NCCSc2c(-c3ccc(Br)cc3)[nH]c3ccccc23)cc1	active: 25.1 µM	–
CN(C(=O)c1c[nH]c2ccc(S(=O)(=O)Nc3cccc(C(F)(F)F)c3)cc2c1=O)C1CCCCC1	inconclusive: 39.8 µM [activator, single point]	–
COc1ccc(N2CCN(C(=O)CN3CCSc4ccccc43)CC2)cc1	inconclusive: 39.8 µM [activator, single point]	–
COc1cccc2sc(NC(=O)c3ccc(S(=O)(=O)N4CCOCC4)cc3)nc12	inconclusive: 39.8 µM [activator, single point]	–
O=C1c2ccccc2-c2ncnc3c(N4CCOCC4)cc(N4CCOCC4)c1c23	inconclusive: 25.1 µM [activator, single point]	–
COc1ccc(-c2noc(-c3cccc(Cl)c3)n2)cc1OC	inconclusive: 31.6 µM [activator, single point]	–

Compound	Potency	max response, negative = inhibition
CCC(Sc1nc2cc(OC)c(OC)cc2c(=O)n1Cc1ccco1)C(=O)NCCOC (centres undefined)	inconclusive: 39.8 µM [activator, single point]	–
O=C(NCCCCc1ccccc1)C12CN(Cc3ccccc3)CC1C(c1ccc([N+](=O)[O-])cc1)=NO2 (centres undefined)	inconclusive: 39.8 µM [inhibitor, single point]	–
CN=C1SC(CC(=O)Nc2sc(C)c(C)c2C(=O)OC)C(=O)N1C (centres undefined)	inconclusive: 31.6 µM [activator, single point]	–
O=C(Cn1cc(SCc2ccc(Br)cc2)c2ccccc21)N1CCCCC1	inconclusive: 31.6 µM [inhibitor, single point]	–
CCCn1c(N)c(C(=O)CSc2nnnn2-c2ccc(O)cc2)c(=O)n(C)c1=O	inconclusive: 25.1 µM [inhibitor, single point]	–
COC(=O)C(C)Sc1nc2c(c(=O)n(C)c(=O)n2C)n1Cc1cccc(C)c1 (centres undefined)	–	inconclusive: 91% [activator]
O=C(COc1ccccc1)NC(=S)N1CCc2ccccc21	inconclusive: 20 µM [inhibitor, single point]	–
O=C/C(=C\Nc1ccc(Cl)cn1)c1nc2cc(Cl)ccc2o1	inconclusive: 31.6 µM [inhibitor, single point]	–
CNC(=S)N/N=C/c1cn(CCOc2ccc(OC)cc2)c2ccccc12	inconclusive: 25.1 µM [inhibitor, single point]	–
Cc1ccc(Cl)cc1N1CCN(C(=O)c2cnn(C(C)(C)C)c2C2CCN(C(=O)OC(C)(C)C)CC2)CC1	inconclusive: 3.98 µM [activator, single point]	–
O=C(CN1CCN(c2ccccc2F)CC1)c1c[nH]c2ccc(F)cc12	inconclusive: 25.1 µM [inhibitor, single point]	–
COc1ccc(NC(=O)Cn2c(=O)cc(C)c3c(C)nn(C)c32)cc1	–	inactive: -8.2%
COc1ccc(CNc2nc(-c3ccc(OC)cc3)cc(C(F)(F)F)n2)cc1	inconclusive: 39.8 µM [inhibitor, single point]	–
CC(C)CCNC(=O)NC(=O)CSc1nnc(-c2ccccc2Br)o1	inconclusive: 12.6 µM [activator, single point]	–
CC[C@H]1C(c2ccccc2)=NN(c2ccccc2)[C@@H]1CO	inconclusive: 25.1 µM [inhibitor, partial curve, poor fit]	–
Cc1ccccc1CCNC(=O)c1ccc(NC(=O)N2CC(C)Sc3ccccc32)cc1 (centres undefined)	inconclusive: 39.8 µM [inhibitor, single point]	–
COc1ccccc1NC(=O)c1sc2nc3c(c(C(F)(F)F)c2c1N)CN(C(C)=O)CC3	–	inactive: -5.08%
Cc1[nH]nc(-c2ccc(OCc3cnn(-c4ccccc4)c3)cc2O)c1Oc1ccc(Cl)cc1	active: 10 µM	–
N/N=C1/CC(=O)NC(=O)N1	–	inactive: -6.02%
Cc1cccc(NC(=S)/N=C(\N)Nc2nc(C)c3ccc(C)cc3n2)c1	inconclusive: 39.8 µM [inhibitor, single point]	–
Cc1ccc(NC(=O)CS(=O)CC(=O)N(CC(=O)NC2CCCC2)c2cccc(C)c2C)cc1 (centres undefined)	inconclusive: 31.6 µM [activator, single point]	–
Cc1ccc(C2=CC(c3ccccc3C)n3c(nc4ccccc43)N2)cc1 (centres undefined)	inconclusive: 39.8 µM [inhibitor, single point]	–

Compound	Potency	max response, negative = inhibition
O=C1N/C(=N\N=C\c2ccc3ncccc3c2)SC1Cc1ccc(SC(F)F)cc1 (centres undefined)	active: 15.8 µM	–
Cc1cccc(NC(=O)C2CCN(c3nc(C)cc(C)n3)CC2)c1	inconclusive: 39.8 µM [inhibitor, single point]	–
Cc1[nH][nH]c(=O)c1C(c1c(C)[nH][nH]c1=O)c1cn(Cc2ccc(Cl)c(Cl)c2)c2ccccc12	inconclusive: 39.8 µM [inhibitor, single point]	–
COc1ccc2c(c1)C(=O)[C@H](OC(=O)NCc1ccco1)[C@@H](c1ccc(OC)c(Br)c1)O2	–	inactive: -13.1%
Cc1ccccc1OCC(=O)N(Cc1ccc(C(C)C)cc1)C1CCS(=O)(=O)C1 (centres undefined)	inconclusive: 25.1 µM [activator, single point]	–
O=C(NCc1ccc(Cl)cc1)c1cc(-c2ccc(F)cc2)on1	inconclusive: 25.1 µM [inhibitor, single point]	–
CCCCN=C1NN=C(c2cc3ccccc3o2)CS1	active: 7.94 µM	–
O=C(NCC1CC1)[C@H]1C[C@@H]1[C@H](NP(=O)(c1ccccc1)c1ccccc1)c1ccccc1	–	inactive: 3.78%
COc1cccc(NC(=O)c2oc3ccccc3c2NC(=O)Cc2cccc(C)c2)c1	–	inactive: -11.2%
COC(=O)CN1C(=O)C(C)(C)c2cc(S(=O)(=O)Nc3ccc(C(C)C)cc3)ccc21	inconclusive: 39.8 µM [activator, single point]	–
COc1ccc(NC(=O)CC2C(=O)N(c3ccc(C)cc3)C(=O)N2C2CCCC2)cc1 (centres undefined)	–	inactive: -7.92%
COc1ccc(CCNC(=O)CCCn2c(=O)c3cccn3c3ccc(F)cc32)cc1OC	–	inactive: 2.23%
CCOP(=O)(OCC)C(Nc1ccccc1)c1cc(OC)ccc1OC (centres undefined)	inconclusive: 39.8 µM [activator, single point]	–
Cc1ccc(C2=N/C(=C\c3c(C)nn(-c4ccccc4)c3N3CCCC3)C(=O)O2)cc1	active: 1.58 µM	–
COc1ccc(/C=N/NC(=S)Nc2cc(S(=O)(=O)N3CCOCC3)ccc2N2CCOCC2)cc1O	inconclusive: 39.8 µM [activator, single point]	–
CN(C)Cc1cc(C(=O)O)cc(CN(C)C)c1O	–	inactive: -3.06%
CCS(=O)(=O)c1nc(S(=O)(=O)c2ccc(C)cc2)c(NCc2ccccc2Cl)s1	inconclusive: 25.1 µM [inhibitor, single point]	–
CC1=NN(C(=O)c2ccc(Cn3nc(C)c(Br)c3C)cc2)C(O)(C(F)(F)F)C1 (centres undefined)	inconclusive: 25.1 µM [activator, single point]	–
O=C(CN(CCc1ccccc1)S(=O)(=O)c1ccc(Br)cc1)N/N=C/c1ccc2c(c1)OCO2	inconclusive: 39.8 µM [inhibitor, single point]	–
O=C(NNC(=S)Nc1ccc(Br)cc1)c1ccc(N2CCOCC2)c([N+](=O)[O-])c1	inconclusive: 31.6 µM [inhibitor, single point]	–
